In the supplement of paper PMC9046079:
± gives the standard deviation of the averaged measurements. Some of the results follow.

Experiments:
[1] = test system: murine small intestinal organoids (ENR+CD Paneth differentiation); test: cellular ATP (CellTiter-Glo 3D) relative to plate median (log10 fold change); higher = more viable cells; details: 6 d
[2] = test system: murine small intestinal organoids (ENR+CD Paneth differentiation); test: carbachol-stimulated secreted lysozyme activity relative to plate median (log10 fold change); higher = more Paneth cell lysozyme secretion; details: 6 d, carbachol 10 µM
[3] = test system: murine small intestinal organoids (ENR+CD Paneth differentiation); test: basal (non-stimulated) secreted lysozyme activity relative to plate median (log10 fold change); higher = more Paneth cell lysozyme secretion; details: 6 d
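For basal (non-stimulated) secreted lysozyme activity relative to plate median in this document: ISC-enriched organoid precursors grown as 2.5D pseudo-monolayer on Matrigel, compound given on day 0 and day 3, plate values LOESS-normalized before median fold change, three murine donors.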
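For cellular ATP (CellTiter-Glo 3D) relative to plate median in this document: 2.5D pseudo-monolayer culture of ISC-enriched organoids partly embedded atop Matrigel, compound added on day 0 and again on day 3, per-plate LOESS correction before median fold change.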

SMILES | cellular ATP (log10) ([1]; 0.08 µM) | cellular ATP (log10) ([1]; 0.4 µM) | cellular ATP (log10) ([1]; 2 µM) | cellular ATP (log10) ([1]; 10 µM) | carbachol-stimulated secreted lysozyme activity (log10) ([2]; 0.08 µM) | carbachol-stimulated secreted lysozyme activity (log10) ([2]; 0.4 µM) | carbachol-stimulated secreted lysozyme activity (log10) ([2]; 2 µM) | carbachol-stimulated secreted lysozyme activity (log10) ([2]; 10 µM) | basal (log10) ([3]; 0.08 µM) | basal (log10) ([3]; 0.4 µM) | basal (log10) ([3]; 2 µM) | basal (log10) ([3]; 10 µM)
C[C@H]1COC2=C1C(=O)C(=O)c1c2ccc2c1CCCC2(C)C [Cryptotanshinone] | 0.199 ± 0.15 | -0.0273 ± 0.49 | -0.184 ± 0.23 | -0.541 ± 0.047 | 0.169 ± 0.094 | -0.19 ± 0.4 | -0.4751 ± 0.0023 | -0.495 ± 0.048 | 0.143 ± 0.065 | -0.12 ± 0.25 | -0.182 ± 0.27 | -0.288 ± 0.11
O=c1oc2cc(O)ccc2s1 [Tioxolone] | 0.262 ± 0.21 | 0.0555 ± 0.13 | 0.0751 ± 0.11 | 0.282 ± 0.22 | 0.191 ± 0.31 | -0.000561 ± 0.099 | -0.0136 ± 0.16 | 0.0249 ± 0.062 | 0.112 ± 0.12 | -0.0254 ± 0.087 | 0.00383 ± 0.11 | -0.00748 ± 0.063
Cc1c(C(=O)Nc2ccc(N3C[C@@H](C)O[C@@H](C)C3)nc2)cccc1-c1ccc(OC(F)(F)F)cc1 [LDE225 (NVP-LDE225,Erismodegib)] | 0.107 ± 0.17 | 0.0666 ± 0.25 | 0.229 ± 0.16 | -0.000799 ± 0.47 | 0.0901 ± 0.042 | 0.0666 ± 0.14 | 0.0423 ± 0.048 | 0.0924 ± 0.041 | 0.0849 ± 0.016 | 0.101 ± 0.08 | 0.0108 ± 0.089 | 0.049 ± 0.12
C=CCc1cccc(/C=N/NC(=O)CN2CCN(Cc3ccccc3)CC2)c1O | 0.0953 ± 0.15 | 0.113 ± 0.066 | -0.241 ± 0.069 | 0.00165 ± 0.19 | 0.123 ± 0.16 | 0.0223 ± 0.039 | -0.0235 ± 0.14 | 0.0652 ± 0.048 | 0.157 ± 0.092 | 0.0525 ± 0.048 | 0.126 ± 0.12 | 0.0685 ± 0.021
COc1ccc(-c2cnc3c(-c4cccc5ncccc45)cnn3c2)cc1 | 0.184 ± 0.23 | 0.209 ± 0.21 | 0.137 ± 0.17 | -0.169 ± 0.39 | 0.0428 ± 0.028 | 0.0822 ± 0.057 | 0.11 ± 0.056 | -0.222 ± 0.098 | 0.124 ± 0.038 | 0.132 ± 0.03 | 0.0689 ± 0.077 | -0.124 ± 0.13
COc1ccc2cc(-c3nc(-c4ccc([S+](C)[O-])cc4)[nH]c3-c3ccncc3)ccc2c1 (stereo unspecified) [Tie2 kinase inhibitor] | -0.11 ± 0.29 | 0.102 ± 0.078 | -0.128 ± 0.4 | -0.421 ± 0.81 | 0.0238 ± 0.047 | -0.0283 ± 0.0022 | -0.0149 ± 0.021 | -0.128 ± 0.18 | 0.0383 ± 0.064 | -0.00717 ± 0.014 | 0.0107 ± 0.031 | -0.055 ± 0.078
CN(C)CCc1c[nH]c2ccc(Cn3cncn3)cc12 [Rizatriptan Benzoate] | 0.224 ± 0.3 | -0.0744 ± 0.44 | 0.0613 ± 0.2 | -0.128 ± 0.069 | 0.264 ± 0.024 | 0.0177 ± 0.096 | -0.127 ± 0.07 | 0.043 ± 0.037 | 0.0536 ± 0.17 | 0.0174 ± 0.038 | -0.0247 ± 0.12 | 0.0299 ± 0.018
O=C(O)CCc1ccc(NCc2cccc(Oc3ccccc3)c2)cc1 | 0.0633 ± 0.33 | 0.174 ± 0.29 | -0.00113 ± 0.27 | -0.0588 ± 0.28 | 0.127 ± 0.1 | 0.11 ± 0.13 | 0.0556 ± 0.11 | -0.00112 ± 0.22 | 0.0747 ± 0.081 | 0.0194 ± 0.1 | -0.0105 ± 0.11 | -0.0402 ± 0.047
COc1ccnc2[nH]cc(C(=O)C(=O)N3CCN(C(=O)c4ccccc4)C[C@H]3C)c12 | 0.233 ± 0.11 | 0.102 ± 0.1 | -0.289 ± 0.31 | -1.15 ± 0.72 | 0.173 ± 0.023 | 0.007 ± 0.16 | -0.167 ± 0.0055 | -0.38 ± 0.074 | 0.141 ± 0.066 | -0.00702 ± 0.15 | -0.0999 ± 0.065 | -0.227 ± 0.078
COc1cc(N2CCC(N(C)C)CC2)ccc1Nc1ncc(Cl)c(Nc2ccccc2P(C)(C)=O)n1 | -0.0545 ± 0.28 | 0.0607 ± 0.27 | -0.558 ± 0.43 | -1.68 ± 0.43 | 0.17 ± 0.067 | -0.0552 ± 0.12 | -0.336 ± 0.17 | -0.467 ± 0.082 | -0.0133 ± 0.028 | -0.0621 ± 0.048 | -0.196 ± 0.12 | -0.272 ± 0.19
COc1cc2/c(=N/c3ccc(Br)cc3F)nc[nH]c2cc1OCC1CCN(C)CC1 [Vandetanib (ZD6474)] | -1.31 ± 0.65 | -0.228 ± 0.55 | -0.533 ± 0.86 | -0.534 ± 0.48 | -0.323 ± 0.12 | 0.264 ± 0.23 | -0.231 ± 0.48 | -0.349 ± 0.56 | -0.146 ± 0.13 | 0.00386 ± 0.23 | -0.159 ± 0.26 | -0.176 ± 0.26
CC(C)c1c(C(=O)Nc2ccccc2)c(-c2ccccc2)c(-c2ccc(F)cc2)n1CC[C@@H](O)C[C@@H](O)CC(=O)O [Atorvastatin Calcium] | -0.129 ± 0.17 | -0.348 ± 0.16 | -1.08 ± 0.53 | -1.58 ± 0.47 | 0.0404 ± 0.013 | -0.0424 ± 0.08 | -0.431 ± 0.035 | -0.388 ± 0.017 | -0.00885 ± 0.064 | 0.00713 ± 0.14 | -0.247 ± 0.12 | -0.235 ± 0.12
Cc1cnc(NC(=O)Nc2cc(Br)c(C)cc2OC[C@@H]2CNCCO2)cn1 | -0.0043 ± 0.17 | -0.238 ± 0.04 | -0.396 ± 0.13 | -0.983 ± 0.23 | 0.0215 ± 0.014 | -0.162 ± 0.11 | -0.306 ± 0.13 | -0.418 ± 0.026 | -0.00526 ± 0.056 | -0.0909 ± 0.071 | -0.193 ± 0.058 | -0.233 ± 0.067
CCOc1ccccc1N=Nc1c(C)[nH]n(-c2nc(-c3ccccc3)cs2)c1=O | 0.209 ± 0.089 | -0.0102 ± 0.21 | -0.156 ± 0.72 | -0.114 ± 0.47 | 0.117 ± 0.2 | 0.0653 ± 0.086 | 0.0768 ± 0.056 | 0.00889 ± 0.079 | 0.0449 ± 0.14 | -0.00937 ± 0.078 | 0.0572 ± 0.13 | -0.00728 ± 0.1
CCC(=O)NCC[C@@H]1CCc2ccc3c(c21)CCO3 [Ramelteon] | -0.00297 ± 0.16 | 0.223 ± 0.23 | -0.138 ± 0.45 | 0.0788 ± 0.22 | 0.0172 ± 0.17 | 0.182 ± 0.21 | 0.0459 ± 0.047 | 0.0971 ± 0.074 | 0.0158 ± 0.1 | 0.0686 ± 0.12 | 0.00523 ± 0.034 | 0.0318 ± 0.069
Clc1ccc(NN=C(c2ccccc2)c2ccccn2)nc1 | 0.254 ± 0.3 | 0.108 ± 0.15 | 0.0916 ± 0.15 | -0.181 ± 0.17 | 0.266 ± 0.14 | 0.0104 ± 0.024 | -0.0222 ± 0.083 | -0.0715 ± 0.47 | 0.178 ± 0.13 | 0.0303 ± 0.066 | 0.0055 ± 0.072 | -0.153 ± 0.12
O=C(Nc1cc(C(F)(F)F)ccc1N1CCCCC1)c1ccncc1 | 0.359 ± 0.45 | 0.497 ± 0.15 | 0.501 ± 0.25 | 0.567 ± 0.25 | 0.0365 ± 0.12 | 0.152 ± 0.048 | 0.134 ± 0.061 | 0.101 ± 0.08 | 0.0915 ± 0.15 | 0.0862 ± 0.029 | 0.104 ± 0.039 | 0.0639 ± 0.034
CC#CCn1c(N2CCC[C@@H](N)C2)nc2c1c(=O)n(Cc1nc(C)c3ccccc3n1)c(=O)n2C [Linagliptin] | 0.163 ± 0.38 | 0.209 ± 0.17 | 0.0228 ± 0.33 | -0.0112 ± 0.28 | 0.0907 ± 0.059 | -0.0346 ± 0.0029 | -0.13 ± 0.008 | 0.0562 ± 0.033 | 0.208 ± 0.14 | 0.0549 ± 0.12 | 0.021 ± 0.12 | 0.0798 ± 0.057
